Source: PubChem BioAssay AID743279 (National Center for Advancing Translational Sciences (NCATS), 2014)
The whole screen tested about 360,000 compounds, of which about 17,000 (4.7%) were called active. The shares of active, inactive and inconclusive entries below differ from those in the screen. Rule as the data show it: active = activity change below about -50%; inconclusive = mostly about -30% to -49%; inactive = weaker than that.
% is scaled to controls: 0 for no effect and ±100 for the full control effect.

Assay: qHTS for Inhibitors of Inflammasome Signaling: IL-1-beta AlphaLISA Primary Screen
Details: THP-1 LPS/ATP IL-1B secretion, 16 h; at 57.5 µM, active compounds read low
Summary of the method: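 THP-1 cells pretreated 1 hr with compounds (up to 57.5 uM final), then stimulated with LPS (250 ng/mL final) plus ATP (1.25 mM final); secreted IL-1B measured by AlphaLISA after 16 hr, decreased signal indicating inhibition.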
With `CCN1CCN(C(=O)C2CCN(c3nnc(C)c4c(C)n(-c5ccc(C)cc5)nc34)CC2)CC1` the activity change was inconclusive: -31.8%. In the case of `CNC(C)C#Cc1ccc2c(=O)c3cc(C)c(C)cc3oc2c1` (configuration not stated), the activity change is reported as inconclusive: -47.9%. With `COc1ccc(CNC(=O)Nc2nc(C(N)Cc3ccc(Cl)cc3)cs2)cc1` (configuration not stated) the activity change was inconclusive: -46.7%. With `Cc1c(-n2cc(C(=O)c3ccccc3O)cc(C#N)c2=O)c(=O)n(-c2ccccc2)n1C` the activity change was inactive: 16.6%. With `COc1cc(COc2ccc3c(C)c(CCC(=O)O)c(=O)oc3c2)cc(OC)c1OC` the activity change was inactive: 17.6%. With `CC(C)(C)OC(=O)N1CCN(C(c2ccnc3ccccc23)c2nnnn2-c2ccc3c(c2)OCCO3)CC1` (configuration not stated) the activity change was inactive: 5.81%. In the case of `O=C(NCc1ccco1)c1ccc(Cl)c(S(=O)(=O)N2CCOCC2)c1`, the activity change is reported as inactive: -8.41%. With `CC(NC(=O)c1cccc(S(=O)(=O)N2CCN(C)CC2)c1)c1ccc(Cl)cc1Cl` (configuration not stated) the activity change was inconclusive: -43.7%. With `Cc1ccc(C(=O)NC(=S)N(C)C2CCCCC2)cc1` the activity change was inconclusive: -33.1%. With `COc1ccc(/C=C/C(=O)Nc2cccc(F)c2)cc1S(=O)(=O)N1CCOCC1` the activity change was inconclusive: -37%. For `NS(=O)(=O)c1ccc(CCNC(=O)CSc2ccc(Cl)cc2Cl)cc1`, the activity change was inconclusive: -48.6%. In the case of `O=C(C1CCCCC1)N1CCN(c2ccnc3cc(Cl)ccc23)CC1`, the activity change is reported as inconclusive: -38.4%. In the case of `Nc1c(C(=O)NCc2ccco2)c2nc3ccccc3nc2n1CCc1ccccc1F`, the activity change is reported as active: -58.1%. In the case of `O=C(N/N=C/C=C/c1ccc([N+](=O)[O-])cc1)C1COc2ccccc2O1` (configuration not stated), the activity change is reported as inconclusive: -44%. In the case of `Cc1ccc(C)c2[nH]c(=O)c(CN(CCCN(C)C)C(=O)NCc3ccccc3)cc12`, the activity change is reported as inconclusive: -44.9%. In the case of `CC(=O)Oc1ccc(Cn2c(C)c(C(=O)NCc3cccc(C(F)(F)F)c3)sc2=O)cc1`, the activity change is reported as inactive: -27.4%. For `CCOC(=O)c1ccc(NC(=O)C2CCCO2)cc1` (configuration not stated), the activity change was inconclusive: -30.2%. For `Nc1ccc(SC(F)(F)F)cc1C(=O)c1ccccc1`, the activity change was active: -103%. In the case of `COc1cccc(/C=N\NS(=O)(=O)c2ccccc2)c1OC`, the activity change is reported as inactive: -11.9%. In the case of `O=C(c1ccccc1)c1cc2ccc(O)cc2oc1=O`, the activity change is reported as inactive: -8.67%. For `COc1ccccc1OCC(=O)N/N=C1\CCCCc2ccccc21`, the activity change was inconclusive: -45%. In the case of `CC[C@H](C)[C@H](NC(=O)c1ccccc1)C(=O)Nc1ccc(S(=O)(=O)Nc2cc(C)nc(C)n2)cc1`, the activity change is reported as inactive: -1.95%. For `O=c1[nH]c2cc([N+](=O)[O-])ccc2c2ccc([N+](=O)[O-])cc12`, the activity change was inactive: 7.12%. With `COC(=O)[C@H](Cc1c[nH]c2ccccc12)NCc1cccc(B(O)O)c1` the activity change was active: -65.8%. With `C/C=C(\C)C(=O)OC1[C@H](OC(C)=O)C2(CO)C(CC1(C)C)C1=CCC3C4(C)CCC(O[C@@H]5O[C@H](C(=O)O)[C@@H](O[C@@H]6O[C@H](CO)[C@@H](O)[C@H](O)[C@H]6O)[C@H](O)[C@H]5O[C@H]5O[C@H](CO)[C@@H](O)[C@H](O)[C@H]5O)[C@](C)(CO)C4CCC3(C)[C@]1(C)C[C@H]2O` (some centres not stated) the activity change was active: -105%. For `CCCCNC(=O)CCn1nc(-c2ccc(Cl)cc2)c2ccccc2c1=O`, the activity change was inconclusive: -31.3%. With `c1ccc(COc2ccc(CNCc3cccnc3)cc2)cc1` the activity change was active: -63.1%. For `COC(=O)Cc1c(O)ccn(Cc2ccc(Cl)c(Cl)c2)c1=O`, the activity change was inactive: 4.12%. In the case of `COc1ccccc1NS(=O)(=O)c1cc(NC(=S)Nc2cc(C)cc(C)c2)ccc1Cl`, the activity change is reported as inconclusive: -44.6%. With `CCOC(=O)NC(=O)c1cn(-c2ccc(OC)cc2)c(=O)[nH]c1=O` the activity change was inactive: 0.798%. For `CC(=O)c1ccc(CCCc2ccc(C(C)=O)cc2)cc1`, the activity change was inconclusive: -31%. In the case of `S=c1[nH]nc(-c2cc(-c3ccccc3)n[nH]2)n1/N=C/c1ccc(Br)s1`, the activity change is reported as active: -96.7%. For `CCN(CC)S(=O)(=O)c1ccc(Cc2ncc(C(F)(F)F)cc2Cl)s1`, the activity change was active: -58.4%. With `CCO[C@H]1OC(C(=O)N2CCN(Cc3ccc4c(c3)OCO4)CC2)=C[C@@H](c2cn(C(C)=O)c3ccccc23)[C@@H]1CCCO` the activity change was inconclusive: -33.1%. In the case of `O=C1CC[C@H](O)CCN1[C@H](CSc1ccc(Br)cc1)Cc1ccccc1`, the activity change is reported as inconclusive: -32.1%. In the case of `CCCOc1c(Br)cc(C2C3=C(CCCC3=O)N(CC)C3=C2C(=O)CCC3)cc1OC`, the activity change is reported as inactive: 17.4%. For `CCOc1ccc2nc(NCCCNC(=O)c3cc(OC)c(OC)c(OC)c3)c(C#N)cc2c1`, the activity change was inactive: -6.24%. In the case of `Cc1cccc(OCC(O)Cn2c(=N)n(CCN3CCOCC3)c3ccccc32)c1` (configuration not stated), the activity change is reported as inconclusive: -45%. In the case of `CCC1CN(C(=O)NCc2ccc(F)cc2)c2cc(Cl)ccc2O1` (configuration not stated), the activity change is reported as active: -61.8%. In the case of `O=C(CSc1ncn[nH]1)Nc1ccccc1Sc1ccc(Cl)cc1`, the activity change is reported as inconclusive: -43.9%. With `O=C(c1cccc(F)c1)N1CCN(c2cccc(C(F)(F)F)c2)CC1` the activity change was inactive: -26.8%. For `Cc1ccccc1Nc1cccc2nonc12`, the activity change was active: -51.8%. For `CCCCn1c(NCc2ccc3c(c2)OCO3)nc2ccccc21`, the activity change was active: -51.1%. With `COc1ccc2[nH]c3c4c(ccc3c2c1)C(=O)C=CC4=O` the activity change was active: -76.5%. In the case of `Oc1ccc(N=Nc2n[nH]c(-c3ccc(Br)cc3)n2)cc1`, the activity change is reported as inconclusive: -40%. With `CN(CC(=O)NCCc1ccc(F)cc1)Cc1cccc(Cl)c1` the activity change was inconclusive: -43.9%. For `C=CCn1cc(C(=O)NCc2ccc3c(c2)OCO3)c(=O)c2cc(S(=O)(=O)N(CC)CC)ccc21`, the activity change was inconclusive: -36.6%. For `CC(=O)c1c(C)n([O-])c2cc(C)ccc2[n+]1=O`, the activity change was inactive: 22.4%. In the case of `CCCC(=O)Nc1nc(-c2ccc3c(c2)CCN3S(C)(=O)=O)cs1`, the activity change is reported as inconclusive: -33.7%. For `O=C(CSCc1nc2ccccc2[nH]1)N1CCN(c2cccc(Cl)c2)CC1`, the activity change was inconclusive: -35.4%. For `COc1ccc(C2CC(=O)C3=C(C2)Nc2ccccc2NC3c2coc3ccccc3c2=O)cc1OC` (configuration not stated), the activity change was inconclusive: -30.6%. For `O=C(Nc1ccc(OCC(F)(F)C(F)F)c(C(F)(F)F)c1)c1ccccc1O`, the activity change was inconclusive: -40.6%.
